Measurements taken from PubChem BioAssay AID1645882 (National Center for Advancing Translational Sciences (NCATS), 2021).
In all, about 16,000 compounds went through this assay and about 120 (0.75%) were called active. Inconclusive results (about 4%) are left out. Calls follow the shape of the dose curve; as a rule, active = well fitted inhibition curve with a large enough effect; inconclusive = small, poorly fitted or top-dose-only effect; inactive = no such curve, though single readings can be large or run the other way. The list shows a part of the results.

Target: Rap guanine nucleotide exchange factor 3 (Homo sapiens) (UniProt O95398)
Sequence of UniProt O95398 (O95398 whole entry, looked up): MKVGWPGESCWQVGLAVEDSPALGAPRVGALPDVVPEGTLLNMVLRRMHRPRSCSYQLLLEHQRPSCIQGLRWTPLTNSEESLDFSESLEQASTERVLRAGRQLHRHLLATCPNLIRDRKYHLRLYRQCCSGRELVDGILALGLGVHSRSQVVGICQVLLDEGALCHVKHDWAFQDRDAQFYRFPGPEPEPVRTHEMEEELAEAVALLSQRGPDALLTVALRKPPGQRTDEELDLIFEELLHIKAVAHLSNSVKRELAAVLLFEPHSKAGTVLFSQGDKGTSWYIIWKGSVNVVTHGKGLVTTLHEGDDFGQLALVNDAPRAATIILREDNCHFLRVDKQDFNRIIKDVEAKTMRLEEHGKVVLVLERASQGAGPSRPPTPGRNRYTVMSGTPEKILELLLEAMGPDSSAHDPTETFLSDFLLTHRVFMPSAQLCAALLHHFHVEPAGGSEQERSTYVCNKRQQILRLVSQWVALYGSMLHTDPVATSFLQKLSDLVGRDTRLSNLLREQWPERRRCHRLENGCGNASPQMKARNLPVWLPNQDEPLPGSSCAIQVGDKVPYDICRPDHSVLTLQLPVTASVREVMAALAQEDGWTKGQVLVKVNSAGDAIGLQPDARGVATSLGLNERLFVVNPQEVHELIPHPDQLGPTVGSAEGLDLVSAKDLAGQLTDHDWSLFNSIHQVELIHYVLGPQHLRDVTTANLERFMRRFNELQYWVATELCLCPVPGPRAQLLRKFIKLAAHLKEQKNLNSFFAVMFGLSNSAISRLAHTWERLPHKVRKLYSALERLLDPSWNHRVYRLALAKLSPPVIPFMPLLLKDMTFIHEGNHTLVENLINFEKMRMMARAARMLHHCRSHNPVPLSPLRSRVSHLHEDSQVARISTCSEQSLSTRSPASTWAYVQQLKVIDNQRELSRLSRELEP
Assay: Validation qHTS for antagonist of cAMP-regulated guanine nucleotide exchange factor 3 (EPAC1);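 also: plate controls were DMSO for no effect and ATA control for full effect; nearly all actives have a fitted effect of over 75% in size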
Conditions: EPAC1 Rap1B-BODIPY-GDP exchange, fluorescence; series mostly up to 150 µM; activity change, negative = inhibition: at the top concentration
Outline: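 EPAC1 (100 nM) mixed with 250 nM RAP1B-BODIPY-GDP and 50 uM GDP; compounds in concentration series, 5 min at room temperature. Fluorescence (ex 480/em 540 nm) read every 5 min for 30 min; normalized to ATA control and DMSO.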

Activity change, negative = inhibition, inactive:
CN(C)CCCO[C@@H]1[C@H]2OC(C)(C)O[C@H]2O[C@@H]1[C@H](O)CO -0.672% [at 75.8 µM], COc1cc(=O)n2c(c1C(=O)NCc1ccco1)CCN(C(=O)c1c(F)ccc(F)c1F)CC2 1.06%, COc1ccccc1CNc1ncnc2ccc(-c3cccnc3)cc12 12.2%, CCCCN1CCCC1C(=O)Nc1c(C)cc(C)cc1C (centres undefined) 2.98%, COc1ccccc1-c1ccc(C(=O)N2CCC(N3CCc4ccccc4C3)CC2)c(N(C)CC2COCCO2)n1 (centres undefined) 14%, CC(C)(C)NC[C@H](O)COc1cccc2[nH]c(=O)[nH]c12 11.5%, CCOc1ccc(C(=O)c2ccc(O)c(O)c2O)cc1 19.1%, COc1ccc(CN2CCCC(n3cc(C(=O)N4CCCCC4)nn3)C2)c(OC)c1OC (centres undefined) -1.24%, O=C(O)/C=C1\CCCc2ccccc2[C@H]1O -14.1%, Cc1nc2cnc(N3CCOCC3)nc2n(CCC#N)c1=O 8.13%, O=C(O)CCC/C=C\C[C@@H]1C(/C=C/[C@@H](O)COc2cccc(C(F)(F)F)c2)[C@@H](O)C[C@@H]1O (some centres undefined) 41.2% [at 15.3 µM], CCCCC[C@H](O)/C=C/C=C\C=C\C=C\[C@@H](O)[C@@H](O)CCCC(=O)O 18.1% [at 1.57 µM], COc1ccc(CN2CCCC(n3cc(C(=O)N4CCCCC4)nn3)C2)cc1OC (centres undefined) 20%, CN(C)CC/C=C1\c2ccccc2COc2ccccc21, Cc1cc(-c2ccnc(-n3ncc(C(=O)NCC4COCCO4)c3C)n2)c(C)s1 (centres undefined) 24.4%, Cc1cnccn1 16.2%, CC(C)NC(=O)N1CCCC2(CCN(C(=O)c3ccncc3)CC2)C1 22.4%, Cn1cc(S(C)=O)c(=O)c2ccc(F)cc21 (centres undefined) 26.7%, CC1=C(C(=O)OCc2ccccc2)N2C(=O)[C@@H](NC(=O)OCc3ccccc3)[C@H]2SC1 -3.97%, COc1ccccc1/C=c1/[nH]c(=O)/c(=C\c2ccccc2OC)[nH]c1=O 17.3%, COCC(=O)Nc1cc(C(=O)NC2C3CC4CC2CC(O)(C4)C3)cc2nc(-c3ccccc3)n(C)c12 (centres undefined) 6.21%, CN1CCN(c2ncc3nc(-c4cn(C)c5ccccc45)c(=O)n(C)c3n2)CC1 13.3%, Nc1nc2c(nc(Cl)n2C2OC(CO)C(O)C2O)c(=O)[nH]1 (centres undefined) 6.29%, COCC(=O)Nc1cc(C(=O)N2CCN(C)C(c3ccccc3)C2)c2c(c1)nc(-c1ccncc1)n2C (centres undefined) 21.3%, Cc1nc2cnc(Oc3cccc(Cl)c3)nc2n(CCC#N)c1=O 0.704%, CCOC(=O)[C@H](CS)NCCN[C@@H](CS)C(=O)OCC 13.3%, COC(=O)c1cn([C@@H]2C[C@@H](C(=O)Nc3cccc(SC)c3)N(C3CCCC3)C2)nn1 15.6%, COc1ncc2nc(-c3ccc(Cl)cc3)c(=O)n(CCc3ccccc3)c2n1 12.2%, COc1cc(=O)n2c(c1C(=O)NC(C)c1ccco1)CCN(Cc1ccccc1C(F)(F)F)CC2 (centres undefined) -4.41%, CCn1c(-c2ccccc2F)nc2cc(NC(C)=O)cc(C(=O)N(C)Cc3ccccn3)c21 21.9%, COC(=O)N1CCC2(CCN(Cc3ccccc3)CC2)CC1 17%, COCCn1c(=O)c(CCc2ccccc2)nc2cnc(N3CCOCC3)nc21 -4.86%, CCCCNC(=O)[C@@H]1CC=C[C@@H]2CCN(C3CCCCC3)C(=O)[C@@H]21 4.35%, O=C(NCCc1ccccn1)C1CC12CCN(C(=O)c1c(F)cccc1Cl)CC2 (centres undefined) -2.14%, CC(=O)C[C@H]1c2cc(C(F)(F)F)ccc2S(=O)(=O)N1c1ccc(N(C)C)cc1 11.1%, COCCn1c(=O)c(-c2cccc(C#N)c2)nc2cnc(Nc3ccccc3)nc21 35.3%, N#Cc1cccc(-c2cncnc2NCc2cccs2)c1 7.48%, CC1(C)C[C@@H]2C(=O)CCC3O[C@@]3(C)CCC21 (some centres undefined) 4.53%, COC(=O)c1cn([C@@H]2C[C@@H](C(=O)Nc3cccc(SC)c3)N(C3CCCCCC3)C2)nn1 -17.6%, COc1cc(-c2noc(C)c2/C=C/c2cccc([N+](=O)[O-])c2)cc(OC)c1OC 3.61%, COC(=O)C[C@H]1c2cc(C(F)(F)F)ccc2S(=O)(=O)N1Cc1ccccc1OC -10.5%, NOCC(=O)O 8.14% [at 75.8 µM], O=c1c(-c2ccccc2)nc2cnc(N3CCNCC3)nc2n1Cc1cccs1 10.5%, O=C(c1ccoc1)N1CCOc2ccc(CN3CCC(Oc4cccnc4)CC3)cc2C1 21.1%, COc1cccc(CN2CCOc3ccc(CN4C[C@@H](C)O[C@@H](C)C4)cc3C2)c1OC 9.34%, CCC1(C2CCN(C(=O)c3ccc(C)cc3C)CC2)NC(=O)N(CCc2scnc2C)C1=O (centres undefined) 6.46%, OCC(O)C(O)C(O)C(O)C(O)CO (centres undefined) 21%, CCn1c(-c2cccnc2)nc2cc(NC(=O)COC)cc(C(=O)N3CCOc4ccccc4C3)c21 17.2%, N#CCCn1c(=O)c(-c2cccs2)nc2cnc(OCc3ccccc3)nc21 5.94%, O=C(NCC1(N2CCCCC2)CCCCC1)c1ccc(-n2cc(NC(=O)c3cccnc3)cn2)cc1 2.9%, CC(C)=CCC/C(C)=C/CC/C(C)=C/CC/C(C)=C/CC1=C(C)C(=O)c2ccccc2C1=O, CN1CCN(c2ncc3nc(-c4ccc(Cl)cc4)c(=O)n(C)c3n2)CC1 4.36%, Cc1ccccc1C1(CC(=O)N2CCCC2c2nccs2)CC(=O)N(C2CCCC2)C1=O (centres undefined) 3.91%, COc1cc(O)c(C)c(O)c1 18.8%, O=C(Nc1ccc(Cl)c(Cl)c1)C1CC1 10.5%, Cn1cccc1C(=O)N1CCC2(CCCN(C(=O)Nc3cccc(F)c3)C2)CC1 16.8%, C[C@H](C[C@H](N)C(=O)O)C(=O)O 11.4%, COC(=O)c1c(OCc2ccccn2)cc(=O)n2c1CCN(Cc1ccc3nsnc3c1)CC2 8.51%, COc1cc(-c2cc(C)c3cccc(OC)c3n2)cc2c1OCCN(C(=O)CCn1nc(C)cc1C)C2 -17.9%, CCC1CN(Cc2cn[nH]c2-c2ccc(F)cc2)Cc2cc(OC)ccc2O1 (centres undefined) -11.5%, COCCN(C)C(=O)c1cnn(-c2nccc(-c3cc(OC)ccc3OC)n2)c1C 10.7%, CN(C)C(=O)[C@@H]1C[C@@H](Sc2nc3ccccc3[nH]2)CN1Cc1ccc(Cl)cc1 -9.39%, COc1ccccc1CNc1ncncc1-c1ccc(C(=O)N(C)C)cc1 9.66%, Cn1nnnc1SCC1=C(C(=O)O)N2C(=O)[C@@H](NC(=O)[C@H](OC=O)c3ccccc3)[C@H]2SC1 24%
